Laboratory results as given in PubChem BioAssay AID463173 (ICCB-Longwood Screening Facility, Harvard Medical School, 2010).
In all, about 52,000 compounds went through this assay and about 4,300 (8.3%) were called active. No stated cut-off is given here; in the data, active means survival mostly below about 52% (no sharp cut-off); inactive means mostly above about 56%. This is one part of the list.

System: DeltatarO mutant
Assay: S. aureus survival, RN4220 and DeltatarO strains – OD600, teichoic acid synthesis inhibitors, primary screen (AID 463173)
Conditions: S. aureus RN4220 wild type/DeltatarO growth, OD600, 18 h, stronger effect = lower value, screened at 18.75 µg/mL (by protocol)

Question: With `COc1ccc(-c2nc3scc(CCNC(=O)c4cccc(Br)c4)n3n2)cc1` as the molecule, how does the survival read?
Answer: inactive: 90%

Question: For `O=C(Nc1cc(-c2nc3cc(Cl)ccc3o2)ccc1Cl)c1cc([N+](=O)[O-])ccc1N1CCOCC1`, which survival is on record?
Answer: inactive: 50%

Question: For `Cc1ccc(S(=O)(=O)N(C)Cc2nc(-c3ccccc3)oc2C)cc1`, which survival is on record?
Answer: inactive: 71%

Question: Which survival does the source give for `CN(C)CCNC(=O)C(=O)NCC(c1cccnc1)N1CCN(c2ccc(F)cc2)CC1` (stereo unspecified) here?
Answer: inactive: 69%

Question: How did the survival turn out when `CCOc1ccccc1NC(=O)Cn1nnc(C(=O)NCc2ccc(F)cc2)c1N` was run?
Answer: inactive: 93%

Question: How did the survival turn out when `COc1ccc(Cn2ccc3nc(C)c(C(=O)N4CCN(c5ccc(OC)cc5)CC4)cc3c2=O)cc1` was run?
Answer: inactive: 124%

Question: How did the survival turn out when `CCc1nc2nc(C)c(NS(=O)(=O)c3ccc(C)cc3)c(=O)n2[nH]1` was run?
Answer: inactive: 89%

Question: With `COc1cccc(N2CCN(C(=O)CCCCCn3c(=O)[nH]c4ccccc4c3=O)CC2)c1` as the molecule, how does the survival read?
Answer: inactive: 67%

Question: How did the survival turn out when `CC1CCn2c(nc3cc(C(=O)NCc4ccc(OC(C)C)cc4)ccc32)C1` (stereo unspecified) was run?
Answer: inactive: 82%

Question: `CCc1ccc(CNC(=O)c2cc3c(=O)n(Cc4cccs4)ccc3nc2C)cc1` was tested. Which survival did it give?
Answer: active: 32%

Question: For `CCC(C(=O)NC1CCC(C)CC1)n1nc(C)c2sc3ccccc3c2c1=O` (stereo unspecified), which survival is on record?
Answer: inactive: 89%

Question: With `CC(C)c1ccc(NC(=O)CSc2nc3ccccc3nc2Cc2ccccc2)cc1` as the molecule, how does the survival read?
Answer: inactive: 66%

Question: Which survival does the source give for `COc1ccccc1CNC(=O)C1CCN(S(=O)(=O)c2ccc3c(c2)CCCN3C(C)=O)CC1` here?
Answer: inactive: 83%

Question: For `Cc1cc(N2C(=O)CCC2=O)n(-c2ccccc2)n1`, which survival is on record?
Answer: inactive: 89%

Question: `CCOc1ccc(-n2c(=O)c3c4c(sc3n(CC(=O)NC(C)CC)c2=O)CCCC4)cc1` (stereo unspecified) was tested. Which survival did it give?
Answer: inactive: 85%

Question: Which survival does the source give for `CC(=O)c1cccc(NC(=O)C2CCN(S(=O)(=O)c3ccc4[nH]c(=O)ccc4c3)CC2)c1` here?
Answer: inactive: 94%

Question: With `Cc1ccc(CNC(=O)C2CCN(Cc3nc(-c4cccc(Br)c4)oc3C)CC2)cc1` as the molecule, how does the survival read?
Answer: inactive: 101%

Question: How did the survival turn out when `Cc1ccc(-n2nc3ccc(NC(=O)COc4ccccc4)cc3n2)cc1Cl` was run?
Answer: inactive: 77%

Question: `Cc1cccc(-n2c(=O)c3ccccc3n(Cc3ccccc3)c2=O)c1` was tested. Which survival did it give?
Answer: inactive: 80%

Question: How did the survival turn out when `O=C(CSc1nc2c([nH]c3ccccc32)c(=O)n1-c1cccc(C(F)(F)F)c1)N1CCc2ccccc21` was run?
Answer: inactive: 78%

Question: Which survival does the source give for `CCc1cc2c(cc(C(=O)OC)n2Cc2nc(-c3ccc(C)cc3)oc2C)s1` here?
Answer: active: 26%

Question: How did the survival turn out when `Cc1cc(C(=O)OC(C)C)ccc1-c1ccc(C=C(C#N)C#N)o1` was run?
Answer: inactive: 104%

Question: How did the survival turn out when `COc1ccc(-c2c(C)nn3c(C(F)(F)F)cc(-c4ccccc4)nc23)cc1` was run?
Answer: inactive: 62%

Question: Which survival does the source give for `COc1ccc(OC)c(NC(=O)c2cc(C3CC3)nc3c2c(C)nn3-c2ccc(C)cc2)c1` here?
Answer: inactive: 64%

Question: Which survival does the source give for `Cc1cc(C)cc(NC(=O)Cc2c(C(=O)O)c(C)cn2C)c1` here?
Answer: inactive: 60%

Question: With `O=C(Cn1cc(SCc2ccccc2F)c2ccccc21)N1CCCCC1` as the molecule, how does the survival read?
Answer: inactive: 82%

Question: For `O=C(NCc1ccco1)c1ccc2c(c1)N(Cc1c(F)cccc1Cl)C(=O)c1ccccc1S2`, which survival is on record?
Answer: inactive: 78%

Question: Which survival does the source give for `CCOC(=O)Cc1nnc2c3ccccc3n(C)c2n1` here?
Answer: inactive: 96%

Question: With `CC1CCCN(Cc2nc3c(c(=O)n(C)c(=O)n3C)n2Cc2ccc(Cl)cc2)C1` (stereo unspecified) as the molecule, how does the survival read?
Answer: inactive: 90%

Question: `O=C(Nc1cc(Cl)ccc1Cl)c1cc2nc(-c3ccc4c(c3)OCO4)cc(C(F)(F)F)n2n1` was tested. Which survival did it give?
Answer: inactive: 76%

Question: `CSc1ccc(CNC(=O)C2CCN(c3nc4ccccc4nc3C(F)(F)F)CC2)cc1` was tested. Which survival did it give?
Answer: inactive: 107%

Question: `Cn1nc(C(=O)NCc2ccccc2Cl)c2c1-c1ccccc1S(=O)(=O)C2` was tested. Which survival did it give?
Answer: inactive: 100%

Question: Which survival does the source give for `Cc1cc(C)cc(NC(=O)CSc2oc(-c3ccco3)nc2S(=O)(=O)c2ccc(Cl)cc2)c1` here?
Answer: inactive: 59%

Question: For `COc1ccc(/C=C2\SC(=S)N(CCC(=O)NCCO)C2=O)cc1`, which survival is on record?
Answer: inactive: 104%

Question: With `CCc1ccc(C(=O)N2CCC(c3nc(-c4ccc(S(=O)(=O)N5CCCC5)cc4)no3)CC2)cc1` as the molecule, how does the survival read?
Answer: inactive: 89%

Question: Which survival does the source give for `O=S(=O)(c1ccc(Br)cc1)c1nnn2c1nc(NCc1ccc3c(c1)OCO3)c1sccc12` here?
Answer: inactive: 81%

Question: With `COc1cc(Cl)c(C)cc1NC(=O)Cn1ncc2c1-c1cc(C)ccc1OC2` as the molecule, how does the survival read?
Answer: inactive: 58%

Question: Which survival does the source give for `CCCSc1ncc(Cl)c(C(=O)Nc2c(C(=O)Nc3ccc(OC)cc3)oc3ccccc23)n1` here?
Answer: inactive: 68%

Question: How did the survival turn out when `CCCOc1ccc(CNC(=O)CCCn2nc(C)c3sc4ccccc4c3c2=O)cc1` was run?
Answer: inactive: 101%

Question: For `Cc1ccc(CNC(=O)CCCCCn2c(=O)c3sccc3n(CC(=O)Nc3c(C)cc(C)cc3C)c2=O)cc1`, which survival is on record?
Answer: inactive: 77%

Question: How did the survival turn out when `COC(=O)/C=C1/N/C(=N/c2nc3cc(C)ccc3o2)NC1=O` was run?
Answer: inactive: 57%

Question: `CCc1ccccc1NC(=O)Cc1ccc(NC(=O)N2CCCCc3ccccc32)cc1` was tested. Which survival did it give?
Answer: inactive: 94%

Question: Which survival does the source give for `Cc1nc2nc(NC(=O)CC(C)C)[nH]n2c(=O)c1Cc1ccccc1` here?
Answer: inactive: 113%

Question: `COc1ccc(C)cc1NC(=O)c1cc2c(=O)n(Cc3cccnc3)ccc2nc1C` was tested. Which survival did it give?
Answer: inactive: 107%

Question: For `Cc1ccc(-c2c(C(=O)N3CCN(c4cc(Cl)ccc4C)CC3)oc(=O)c3ccccc23)cc1`, which survival is on record?
Answer: inactive: 94%

Question: `CCS(=O)(=O)c1ncc(Cl)c(C(=O)Nc2c(C(=O)Nc3cccc(C)c3)oc3ccccc23)n1` was tested. Which survival did it give?
Answer: inactive: 67%

Question: With `COc1ccccc1N1CCN(C(CNC(=O)C(=O)NCc2ccc(F)cc2)c2cccnc2)CC1` (stereo unspecified) as the molecule, how does the survival read?
Answer: inactive: 104%

Question: With `O=C(Nc1ccc(F)c(Cl)c1)N1CCC2(CC1)Oc1ccccc1C(=O)N2Cc1ccccc1F` as the molecule, how does the survival read?
Answer: inactive: 55%

Question: Which survival does the source give for `Nc1ccc(C(=O)N(CCO)CCO)cc1` here?
Answer: inactive: 54%

Question: How did the survival turn out when `Cc1ccc(-n2c(SCC(=O)NC(C)(C)C)nc(O)cc2=O)cc1` was run?
Answer: inactive: 107%

Question: For `Cc1cc(C)c(S(=O)(=O)N2CCC(N3CCN(Cc4ccccc4)C(=O)C3=O)CC2)c(C)c1`, which survival is on record?
Answer: inactive: 68%

Question: `CCN(CC)S(=O)(=O)c1cccc(C(=O)Nc2sc3c(c2C#N)CCC(C)C3)c1` (stereo unspecified) was tested. Which survival did it give?
Answer: inactive: 121%

Question: For `COc1ccc2c(c1)c1c(c(=O)n(-c3ccccc3C)c(=O)n1C)n2C`, which survival is on record?
Answer: inactive: 81%

Question: With `COc1ccc(Cc2nnc(NC(=O)c3cccs3)s2)cc1OC` as the molecule, how does the survival read?
Answer: inactive: 100%

Question: How did the survival turn out when `COc1ccc(Nc2cc(C)c3cc(NC(=O)Cc4ccc(Cl)cc4)ccc3n2)cc1` was run?
Answer: inactive: 103%

Question: With `Cc1ccc(Cl)cc1N1CCN(c2ncnc3c2nc2n3CCCCC2)CC1` as the molecule, how does the survival read?
Answer: inactive: 96%

Question: How did the survival turn out when `COc1ccc(-n2ncc(C(=O)N3CCN(c4cc(C)ccc4C)CC3)c2C2CCN(C(=O)OC(C)(C)C)CC2)cc1` was run?
Answer: inactive: 80%

Question: `COc1ccc(CNCc2c(C(=O)O)c(C)n(Cc3ccccc3C)c2C)c(OC)c1` was tested. Which survival did it give?
Answer: inactive: 122%

Question: With `CCN(CC)CCNC(=O)c1cn(CCOC)c(=O)c2c1c1ccccc1n2C` as the molecule, how does the survival read?
Answer: inactive: 82%

Question: For `O=C(CSc1cn(CCNC(=O)c2c(F)cccc2F)c2ccccc12)Nc1ccc(F)cc1`, which survival is on record?
Answer: inactive: 128%

Question: How did the survival turn out when `Cc1nnc(NC(=O)CSc2nccn2Cc2ccc(Cl)cc2)s1` was run?
Answer: inactive: 112%

Question: How did the survival turn out when `COc1ccc(Cc2nc3c4cnn(-c5ccccc5F)c4ncn3n2)cc1` was run?
Answer: inactive: 81%

Question: Which survival does the source give for `COc1ccc(Cl)cc1N(C)C(=O)c1cc2c(=O)oc3ccc(C)cc3c2s1` here?
Answer: inactive: 68%

Question: With `O=C(/C=C/c1ccccc1)NC(O)C(=O)c1ccccc1` (stereo unspecified) as the molecule, how does the survival read?
Answer: inactive: 83%

Question: With `CCCCNC(=O)c1cc(-c2ccc(OC)cc2)nc2n[nH]c(-c3cccc([N+](=O)[O-])c3)c12` as the molecule, how does the survival read?
Answer: inactive: 67%

Question: `CCc1ccccc1NC(=O)CN1CCCN(Cc2cc(C)ccc2C)S1(=O)=O` was tested. Which survival did it give?
Answer: inactive: 94%

Question: With `CCc1ccc(NC(=O)CCNS(=O)(=O)c2ccc3c(c2)oc(=O)n3C)cc1` as the molecule, how does the survival read?
Answer: inactive: 89%

Question: For `Cc1ccc(C)c(NC(=O)Cn2cc(C(=O)c3cccs3)c3ccccc32)c1`, which survival is on record?
Answer: inactive: 121%

Question: For `CC(C)Oc1ccc(C(=O)NCC(c2ccc(N(C)C)cc2)N2CCCC2)cc1` (stereo unspecified), which survival is on record?
Answer: inactive: 60%

Question: `CCOc1ccccc1NC(=O)CCNS(=O)(=O)c1cccc2nonc12` was tested. Which survival did it give?
Answer: active: 45%

Question: How did the survival turn out when `CCOc1ccccc1NC(=O)C1CCCN1S(=O)(=O)c1ccc2c(c1)C(C)(C)C(=O)N2C` (stereo unspecified) was run?
Answer: inactive: 50%

Question: `COc1cc(C(=O)Nc2ccc3c(c2)N(C2CCCC2)C(=O)c2ccccc2S3)cc(OC)c1OC` was tested. Which survival did it give?
Answer: inactive: 72%

Question: For `COc1ccc(NC(=O)N2CCOc3ccc(Cl)cc32)cc1`, which survival is on record?
Answer: active: 44%

Question: `Nc1c(C(=O)Nc2ccccc2F)sc2nc3c(cc12)CCCCCC3` was tested. Which survival did it give?
Answer: inactive: 61%

Question: With `Cc1ccc(NS(=O)(=O)c2cc(-c3cnc(C4CC4)o3)ccc2C)cc1Cl` as the molecule, how does the survival read?
Answer: inactive: 129%

Question: How did the survival turn out when `Cc1cc(NC(=O)c2ccc3c(c2)OCCO3)cc(-c2nc3ccccc3o2)c1O` was run?
Answer: inactive: 63%

Question: Which survival does the source give for `CCC(C(=O)NCc1ccc(OC)c(OC)c1)n1nc(C)c2c(C)n(-c3ccc(C)cc3)nc2c1=O` (stereo unspecified) here?
Answer: inactive: 78%

Question: Which survival does the source give for `Cc1ccc(C(=O)COC(=O)c2cccc(NC(=O)c3ccc(Cl)cc3Cl)c2)cc1` here?
Answer: inactive: 61%

Question: `Cc1ccc(NC(=O)C2CCN(S(=O)(=O)c3c(C)noc3/C=C/c3cccs3)CC2)cc1F` was tested. Which survival did it give?
Answer: inactive: 64%

Question: Which survival does the source give for `COc1ccc(NC(=O)CCc2nc3c(C)nn(-c4ccc(C)cc4)c3n(C)c2=O)cc1` here?
Answer: inactive: 82%

Question: For `Cc1cccc(N(CC(=O)NCCSCc2cccc(Cl)c2)S(=O)(=O)c2ccccc2)c1C`, which survival is on record?
Answer: inactive: 57%

Question: With `CCCS(=O)(=O)c1c(S(=O)(=O)CCC)c2cc(CC)ccn2c1C(=O)c1ccc(Cl)cc1` as the molecule, how does the survival read?
Answer: inactive: 75%

Question: How did the survival turn out when `O=C(CN1C(=O)COc2ccccc21)N(Cc1ccccc1)Cc1ccccn1` was run?
Answer: inactive: 91%

Question: How did the survival turn out when `COc1ccc(C2NC(=O)N(C)C3=C2C(=O)N(c2cccc(C(=O)O)c2)C3)cc1` (stereo unspecified) was run?
Answer: inactive: 84%

Question: For `COc1ccc(Cl)cc1CNCCSc1nnnn1-c1ccccc1`, which survival is on record?
Answer: inactive: 50%

Question: How did the survival turn out when `CCN(CC)CCCNC(=O)c1nn(C)c2c1CSc1ccccc1-2` was run?
Answer: inactive: 87%
